# The supplement of paper PMC8728848
# The other results are listed elsewhere or left out.
# B1: Epa9 (Candida glabrata), CAGL0A01386g (protein)
# chain: MGSSHHHHHHSSGLVPRGSHMDITPFAHYPRPEGCSSPPNAVSVGLHMDLYNYPYLYVKNPRTGFTNDTDSDADGETDGDSAGGIEGRAGQCWNPEYQDPNFPRYGYKKYGSFGSSDHVNGKISWDHNEFKEGCKPIMARLPTAYNYPAKITFSNFTMVLSGYFKPKSTGLYKFEIHADDFILFNFGSKNAFECCNREESIDNFGPYVAYAMWPNEADQELEVYLFEDSYYPIRLFYNNRDYHSKFMVGFYPPNTEEITYDFDGYLYMLDDTGNECKDSIRYKTVCDD
# Key:
# Assay in all cases: glycan array binding signal (z-score within array); higher = stronger binding
# Settings in all cases: glycan notation: IUPAC condensed, linker removed
# [1] = biological target: Fuc(a1-2)Gal
# How it was run: (§1)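 Glycan array data came from 3228 arrays in the Consortium for Functional Glycomics database, and only arrays with an available protein sequence were kept. Glycan names were put into IUPAC-condensed notation, and columns mapping to the same glycan were averaged. The binding signal is a within-array Z-score, averaged across arrays of one protein sequence run at different concentrations or buffers and across linkers. A negative Z-score can be read as non-binding.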
# [2] = biological target: Fuc(a1-2)Gal(b1-3)GalNAc
# How it was run: as §1
# [3] = biological target: Fuc(a1-2)Gal(b1-3)GalNAc(a1-3)[Fuc(a1-2)]Gal(b1-4)Glc
# How it was run: as §1
# [4] = biological target: Fuc(a1-2)Gal(b1-3)GalNAc(a1-3)[Fuc(a1-2)]Gal(b1-4)GlcNAc
# How it was run: as §1
# [5] = biological target: Fuc(a1-2)Gal(b1-3)GalNAc(b1-3)Gal
# How it was run: as §1
# [6] = biological target: Fuc(a1-2)Gal(b1-3)GalNAc(b1-3)Gal(a1-4)Gal(b1-4)Glc
# How it was run: as §1
# [7] = biological target: Fuc(a1-2)Gal(b1-3)GalNAc(b1-4)[Neu5Ac(a2-3)]Gal(b1-4)Glc
# How it was run: as §1
# [8] = biological target: Fuc(a1-2)Gal(b1-3)GlcNAc
# How it was run: as §1
# [9] = biological target: Fuc(a1-2)Gal(b1-3)GlcNAc(b1-2)Man(a1-3)[Fuc(a1-2)Gal(b1-3)GlcNAc(b1-2)Man(a1-6)]Man(b1-4)GlcNAc(b1-4)GlcNAc
# How it was run: as §1
# [10] = biological target: Fuc(a1-2)Gal(b1-3)GlcNAc(b1-2)Man(a1-3)[Fuc(a1-2)Gal(b1-3)GlcNAc(b1-2)Man(a1-6)]Man(b1-4)GlcNAc(b1-4)[Fuc(a1-6)]GlcNAc
# How it was run: as §1
# [11] = biological target: Fuc(a1-2)Gal(b1-3)GlcNAc(b1-3)Gal(b1-4)Glc
# How it was run: as §1
# [12] = biological target: Fuc(a1-2)Gal(b1-3)GlcNAc(b1-3)GalNAc
# How it was run: as §1
# [13] = biological target: Fuc(a1-2)Gal(b1-3)GlcNAc(b1-3)[Fuc(a1-2)Gal(b1-3)GlcNAc(b1-6)]GalNAc
# How it was run: as §1
# [14] = biological target: Fuc(a1-2)Gal(b1-3)GlcNAc(b1-3)[Gal(b1-4)GlcNAc(b1-6)]Gal(b1-4)Glc
# How it was run: as §1
# [15] = biological target: Fuc(a1-2)Gal(b1-3)GlcNAc(b1-3)[Neu5Ac(a2-6)Gal(b1-4)GlcNAc(b1-6)]Gal(b1-4)Glc
# How it was run: as §1
# [16] = biological target: Fuc(a1-2)Gal(b1-3)GlcNAc6S
# How it was run: as §1
# [17] = biological target: Fuc(a1-2)Gal(b1-3)[Fuc(a1-4)]GlcNAc
# How it was run: as §1
# [18] = biological target: Fuc(a1-2)Gal(b1-3)[Fuc(a1-4)]GlcNAc(b1-2)Man(a1-3)[Fuc(a1-2)Gal(b1-3)[Fuc(a1-4)]GlcNAc(b1-2)Man(a1-3)]Man(b1-4)GlcNAc(b1-4)GlcNAc
# How it was run: as §1
# [19] = biological target: Fuc(a1-2)Gal(b1-3)[Fuc(a1-4)]GlcNAc(b1-2)Man(a1-3)[Fuc(a1-2)Gal(b1-3)[Fuc(a1-4)]GlcNAc(b1-2)Man(a1-6)]Man(b1-4)GlcNAc(b1-4)[Fuc(a1-6)]GlcNAc(b1-4)[Fuc(a1-6)]GlcNAc
# How it was run: as §1
# [20] = biological target: Fuc(a1-2)Gal(b1-3)[Fuc(a1-4)]GlcNAc(b1-3)[Fuc(a1-3)[Gal(b1-4)]GlcNAc(b1-6)]Gal(b1-4)Glc
# How it was run: as §1
# [21] = biological target: Fuc(a1-2)Gal(b1-3)[Fuc(a1-4)]GlcNAc(b1-3)[Gal(b1-4)GlcNAc(b1-6)]Gal(b1-4)Glc
# How it was run: as §1
# [22] = biological target: Fuc(a1-2)Gal(b1-4)Fuc(a1-3)]GlcNAc(b1-2)Man(a1-3)[Fuc(a1-2)Gal(b1-4)[Fuc(a1-3)]GlcNAc(b1-2)Man(a1-6)]Man(b1-4)GlcNAc(b1-4)GlcNAc
# How it was run: as §1
# [23] = biological target: Fuc(a1-2)Gal(b1-4)Glc
# How it was run: as §1
# [24] = biological target: Fuc(a1-2)Gal(b1-4)Glc6S
# How it was run: as §1
# [25] = biological target: Fuc(a1-2)Gal(b1-4)GlcNAc
# How it was run: as §1
# [26] = biological target: Fuc(a1-2)Gal(b1-4)GlcNAc(b1-2)Man
# How it was run: as §1
# [27] = biological target: Fuc(a1-2)Gal(b1-4)GlcNAc(b1-2)Man(a1-3)[Fuc(a1-2)Gal(b1-4)GlcNAc(b1-2)Man(a1-6)]Man(b1-4)GlcNAc(b1-4)GlcNAc
# How it was run: as §1
# [28] = biological target: Fuc(a1-2)Gal(b1-4)GlcNAc(b1-2)Man(a1-3)[Fuc(a1-2)Gal(b1-4)GlcNAc(b1-2)Man(a1-6)]Man(b1-4)GlcNAc(b1-4)[Fuc(a1-6)]GlcNAc
# How it was run: as §1
# [29] = biological target: Fuc(a1-2)Gal(b1-4)GlcNAc(b1-2)[Fuc(a1-2)Gal(b1-4)GlcNAc(b1-4)]Man(a1-3)[Fuc(a1-2)Gal(b1-4)GlcNAc(b1-2)Man(a1-6)]Man(b1-4)GlcNAc(b1-4)GlcNAc
# How it was run: as §1
# [30] = biological target: Fuc(a1-2)Gal(b1-4)GlcNAc(b1-3)Gal(b1-4)GlcNAc
# How it was run: as §1
binder,measurement,setting,value
B1,glycan array binding signal (z-score),[1],-0.628
same,glycan array binding signal (z-score),[2],-0.428
same,glycan array binding signal (z-score),[3],-0.471
same,glycan array binding signal (z-score),[4],-0.078
same,glycan array binding signal (z-score),[5],-0.366
same,glycan array binding signal (z-score),[6],-0.476
same,glycan array binding signal (z-score),[7],-0.361
same,glycan array binding signal (z-score),[8],-0.513
same,glycan array binding signal (z-score),[9],-0.396
same,glycan array binding signal (z-score),[10],-0.458
same,glycan array binding signal (z-score),[11],-0.504
same,glycan array binding signal (z-score),[12],-0.468
same,glycan array binding signal (z-score),[13],-0.296
same,glycan array binding signal (z-score),[14],0.463
same,glycan array binding signal (z-score),[15],-0.246
same,glycan array binding signal (z-score),[16],-0.379
same,glycan array binding signal (z-score),[17],-0.514
same,glycan array binding signal (z-score),[18],-0.316
same,glycan array binding signal (z-score),[19],-0.451
same,glycan array binding signal (z-score),[20],-0.203
same,glycan array binding signal (z-score),[21],0.159
same,glycan array binding signal (z-score),[22],-0.247
same,glycan array binding signal (z-score),[23],-0.404
same,glycan array binding signal (z-score),[24],-0.355
same,glycan array binding signal (z-score),[25],-0.473
same,glycan array binding signal (z-score),[26],-0.466
same,glycan array binding signal (z-score),[27],-0.424
same,glycan array binding signal (z-score),[28],-0.387
same,glycan array binding signal (z-score),[29],-0.479
same,glycan array binding signal (z-score),[30],-0.445
